The strong results were mostly taken out for another list; the other results follow.
The molecules below were run against Tyrosine-protein kinase Blk (Homo sapiens) (UniProt P51451). Details: at 1 µM.
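Note: mean percent inhibition of BLK kinase activity, from GSK PKIS kinase inhibitor set profiling.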

UniProt P51451, sequence (P51451 whole entry, looked up): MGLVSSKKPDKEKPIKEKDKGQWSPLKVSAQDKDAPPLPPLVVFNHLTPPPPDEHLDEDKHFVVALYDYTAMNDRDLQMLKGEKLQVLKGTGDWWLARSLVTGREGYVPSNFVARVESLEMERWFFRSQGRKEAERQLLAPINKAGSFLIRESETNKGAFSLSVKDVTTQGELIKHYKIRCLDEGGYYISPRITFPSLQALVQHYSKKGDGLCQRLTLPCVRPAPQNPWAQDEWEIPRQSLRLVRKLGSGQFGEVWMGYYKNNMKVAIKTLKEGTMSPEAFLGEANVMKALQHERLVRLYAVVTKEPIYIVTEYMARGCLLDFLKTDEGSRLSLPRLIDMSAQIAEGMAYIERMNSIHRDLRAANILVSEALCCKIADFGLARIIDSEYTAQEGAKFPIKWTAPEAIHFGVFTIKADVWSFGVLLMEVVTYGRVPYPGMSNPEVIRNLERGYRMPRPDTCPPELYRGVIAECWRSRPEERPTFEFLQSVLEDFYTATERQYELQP

SMILES | inhibition
O=C1NC(=O)C(c2ccccc2)=C1Nc1ccccc1 | 3.55%
CS(=O)(=O)c1ccc(Oc2nccc(-c3c(-c4ccc(F)cc4)ncn3C3CCNCC3)n2)cc1 | 3.05%
Fc1ccc(Oc2nccc(-c3c(-c4ccc(F)cc4)ncn3C3CCNCC3)n2)cc1 | -2.68%
Cc1cccc(Oc2nccc(-c3c(-c4ccc(F)cc4)ncn3C3CCNCC3)n2)c1C | 3.56%
COc1ccccc1Oc1nccc(-c2c(-c3ccc(F)cc3)ncn2C2CCNCC2)n1 | 6.98%
O=C1NC(=O)C(c2cccc([N+](=O)[O-])c2)=C1Nc1cc(Cl)c(O)c(Cl)c1 | 1.36%
NC(=O)CCc1ccccc1Oc1nccc(-c2c(-c3ccc(F)cc3)ncn2C2CCNCC2)n1 | -0.54%
Fc1ccc(-c2ncn(C3CCNCC3)c2-c2ccnc(Oc3cccc(C(F)(F)F)c3)n2)cc1 | 5.32%
CC(C)(C)c1ccc(Oc2nccc(-c3c(-c4ccc(F)cc4)ncn3C3CCNCC3)n2)cc1 | 3.11%
Fc1ccc(-c2ncn(C3CCNCC3)c2-c2ccnc(Oc3ccc(Cl)cc3)n2)cc1 | 1.92%
Fc1ccc(-c2ncn(C3CCNCC3)c2-c2ccnc(Oc3cccc(F)c3)n2)cc1 | 4.86%
O=C(O)c1ccc(Oc2nccc(-c3c(-c4ccc(F)cc4)ncn3C3CCNCC3)n2)cc1 | 1.74%
O=C1NC(=O)C(c2ccccc2Cl)=C1Nc1cc(Cl)c(O)c(Cl)c1 | 1.18%
COc1ccccc1C1=C(Nc2ccccc2)C(=O)NC1=O | 12.8%
